The list shows a part of the results.
B1: Q9UKT9 (peptide)
chain: FMCSVCGHDFTQKGNLLRHIKL
B2: Q9UKT9 (peptide)
chain: FDCEICGHKFTQKGNLLRHIKL
B3: Q9UKT9 (peptide)
chain: FFCDQCGACFTQKGNLLRHIKL
B4: Q9UKT9 (peptide)
chain: FYCEICGHTFTQKGNLLRHIKL
B5: Q9UKT9 (peptide)
chain: FTCPICGAIFTQKGNLLRHIKL
B6: Q9UKT9 (peptide)
chain: LTCPICGFHCTQKGNLLRHIKL
B7: Q9UKT9 (peptide)
chain: FVCDVCGANFTQKGNLLRHIKL
B8: Q9UKT9 (peptide)
chain: FNCPICGHYFTQKGNLLRHIKL
B9: Q9UKT9 (peptide)
chain: FRCDVCGATFTQKGNLLRHIKL
B10: Q9UKT9 (peptide)
chain: FACEICGAIFTQKGNLLRHIKL
B11: Q9UKT9 (peptide)
chain: LSCEICGFMCTQKGNLLRHIKL
B12: Q9UKT9 (peptide)
chain: FHCEICGAYFTQKGNLLRHIKL
B13: Q9UKT9 (peptide)
chain: LECEICGFRCTQKGNLLRHIKL
B14: Q9UKT9 (peptide)
chain: FNCEICGRWFTQKGNLLRHIKL
B15: Q9UKT9 (peptide)
chain: FECDVCGAVFTQKGNLLRHIKL
B16: Q9UKT9 (peptide)
chain: FNCEICGREFTQKGNLLRHIKL
B17: Q9UKT9 (peptide)
chain: FTCDVCGADFTQKGNLLRHIKL
B18: Q9UKT9 (peptide)
chain: FHCNQCGRNFTQKGNLLRHIKL
B19: Q9UKT9 (peptide)
chain: FHCNQCGHGFTQKGNLLRHIKL
B20: Q9UKT9 (peptide)
chain: FHCDVCGAQFTQKGNLLRHIKL
B21: Q9UKT9 (peptide)
chain: FKCEICGRRFTQKGNLLRHIKL
B22: Q9UKT9 (peptide)
chain: LVCEICGFFCTQKGNLLRHIKL
B23: Q9UKT9 (peptide)
chain: FTCPQCGADFTQKGNLLRHIKL
B24: Q9UKT9 (peptide)
chain: LMCEICGFECTQKGNLLRHIKL
B25: Q9UKT9 (peptide)
chain: FHCPVCGATFTQKGNLLRHIKL
B26: Q9UKT9 (peptide)
chain: FVCEVCGAQFTQKGNLLRHIKL
B27: Q9UKT9 (peptide)
chain: FMCEICGHKFTQKGNLLRHIKL
B28: Q9UKT9 (peptide)
chain: FKCPVCGAAFTQKGNLLRHIKL
B29: Q9UKT9 (peptide)
chain: FFCPICGRRFTQKGNLLRHIKL
B30: Q9UKT9 (peptide)
chain: FRCEICGHAFTQKGNLLRHIKL
B31: Q9UKT9 (peptide)
chain: FACDQCGAWFTQKGNLLRHIKL
B32: Q9UKT9 (peptide)
chain: FFCEICGAIFTQKGNLLRHIKL
B33: Q9UKT9 (peptide)
chain: FDCDICGALFTQKGNLLRHIKL
B34: Q9UKT9 (peptide)
chain: LMCNQCGFYCTQKGNLLRHIKL
B35: Q9UKT9 (peptide)
chain: FECEQCGAEFTQKGNLLRHIKL
B36: Q9UKT9 (peptide)
chain: FGCNQCGHYFTQKGNLLRHIKL
B37: Q9UKT9 (peptide)
chain: FSCNVCGANFTQKGNLLRHIKL
B38: Q9UKT9 (peptide)
chain: FECSVCGHLFTQKGNLLRHIKL
B39: Q9UKT9 (peptide)
chain: FVCPVCGAKFTQKGNLLRHIKL
B40: Q9UKT9 (peptide)
chain: FCCEQCGACFTQKGNLLRHIKL
B41: Q9UKT9 (peptide)
chain: FICPVCGAWFTQKGNLLRHIKL
B42: Q9UKT9 (peptide)
chain: FMCNVCGALFTQKGNLLRHIKL
B43: Q9UKT9 (peptide)
chain: LACEICGFNCTQKGNLLRHIKL
B44: Q9UKT9 (peptide)
chain: FVCDQCGATFTQKGNLLRHIKL
B45: Q9UKT9 (peptide)
chain: FHCPQCGATFTQKGNLLRHIKL
B46: Q9UKT9 (peptide)
chain: FACNVCGAIFTQKGNLLRHIKL
B47: Q9UKT9 (peptide)
chain: FMCSVCGHHFTQKGNLLRHIKL
B48: Q9UKT9 (peptide)
chain: FHCEICGHVFTQKGNLLRHIKL
B49: Q9UKT9 (peptide)
chain: FYCDVCGAAFTQKGNLLRHIKL
B50: Q9UKT9 (peptide)
chain: FSCEICGHDFTQKGNLLRHIKL

biological target: no compound (DMSO); experiment: log2 fold change of degron read counts, EGFP-low vs EGFP+ sorted cells; higher = lower degron-EGFP level without compound (poor expression or instability); conditions: compound: DMSO control; 18 h
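Note: jurkat cells carrying a lentiviral library of mutant zinc finger degrons fused to EGFP plus mCherry, mCherry+ cells FACS sorted, degron abundance counted by next-generation sequencing.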

| Sequence | log2 fold change of degron read counts |
| --- | --- |
| B1 | -0.766 |
| B2 | -0.962 |
| B3 | 0.00723 |
| B4 | -1.87 |
| B5 | 0.5 |
| B6 | 0.462 |
| B7 | -1.57 |
| B8 | 0.379 |
| B9 | -2.18 |
| B10 | -1.38 |
| B11 | 0.299 |
| B12 | -1.52 |
| B13 | -1.75 |
| B14 | -0.243 |
| B15 | -2 |
| B16 | -2.59 |
| B17 | -3.71 |
| B18 | -1.48 |
| B19 | 0.317 |
| B20 | -1.8 |
| B21 | -2.42 |
| B22 | 1.25 |
| B23 | -2.36 |
| B24 | -0.329 |
| B25 | -0.162 |

| Sequence | log2 fold change of degron read counts |
| --- | --- |
| B26 | -2 |
| B27 | -2.48 |
| B28 | 0.0654 |
| B29 | -1.83 |
| B30 | -2.11 |
| B31 | -0.0901 |
| B32 | 0.011 |
| B33 | 0.167 |
| B34 | 1.48 |
| B35 | -3.56 |
| B36 | 1.96 |
| B37 | -1.79 |
| B38 | -1 |
| B39 | -0.745 |
| B40 | -1.69 |
| B41 | 0.926 |
| B42 | 0.548 |
| B43 | 0.012 |
| B44 | -2.17 |
| B45 | -0.845 |
| B46 | 0.199 |
| B47 | -0.12 |
| B48 | -1.37 |
| B49 | -1.07 |
| B50 | -1.89 |
